Assay results as given in the supplement of paper PMC4967469.
A lower IC50 marks a more sensitive line; fits outside the tested doses are given as limits. The AUC spans the tested range (256-fold, ending at the top dose) of the same fit; the more sensitive the line, the further below 1. For part of these data: Any top dose called inferred is not printed in the source and was worked back from the curve model. For part of these data: An entry number marks a drug with two screens in the source, which often give different values.

What was measured:
Test in all cases: Viability of human cancer cell lines after 72 h of drug (GDSC screen)
AMG-706 = compound: CC1(C)CNc2cc(NC(=O)c3cccnc3NCc3ccncc3)ccc21 [AMG-706]; conditions: top dose 2 µM; top dose inferred
Procedure: (§1)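 Human cancer cell lines in 384-well plates, medium with 10% serum, drug for 72 h over a 256-fold dose range (nine 2-fold or five 4-fold steps up to the top dose). Adherent lines were fixed and stained with the nucleic acid dye Syto60, suspension lines read with resazurin; signal relative to control wells, capped at 0 and 100%. One two-parameter sigmoid per drug and line, fitted in a mixed model over all curves with the slope shared within a line.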

Cyclopamine = compound: CC1=C2C[C@H]3[C@@H](CC=C4C[C@@H](O)CC[C@@]43C)[C@@H]2CC[C@]12O[C@@H]1C[C@H](C)CN[C@H]1[C@H]2C [Cyclopamine]; conditions: top dose 16 µM; top dose inferred
Procedure: as §1

JNK Inhibitor VIII = compound: CCOc1nc(NC(=O)Cc2cc(OC)ccc2OC)cc(N)c1C#N [JNK Inhibitor VIII]; conditions: top dose 10 µM; top dose inferred
Procedure: as §1

NSC-207895 = compound: CN1CCN(c2ccc([N+](=O)[O-])c3no[n+]([O-])c23)CC1 [NSC-207895]; conditions: top dose 20 µM; top dose inferred
Procedure: as §1

FTI-277 = compound: COC(=O)[C@H](CCSC)NC(=O)c1ccc(NC[C@@H](N)CS)cc1-c1ccccc1 [FTI-277]; conditions: top dose 1.024 µM; top dose inferred
Procedure: as §1

YM155 = compound: COCC[n+]1c2c(n(Cc3cnccn3)c1C)C(=O)c1ccccc1C2=O [YM155]; conditions: top dose 5.12 µM
Procedure: as §1

OSI-906 = compound: C[C@]1(O)C[C@@H](c2nc(-c3ccc4ccc(-c5ccccc5)nc4c3)c3c(N)nccn32)C1 [OSI-906]; conditions: top dose 2.56 µM; top dose inferred
Procedure: as §1

SB-715992 = compound: Cc1ccc(C(=O)N(CCCN)[C@@H](c2nc3cc(Cl)ccc3c(=O)n2Cc2ccccc2)C(C)C)cc1 [SB-715992]; conditions: top dose 0.128 µM; top dose inferred
Procedure: as §1

JQ1 = compound: Cc1sc2c(c1C)C(c1ccc(Cl)cc1)=N[C@@H](CC(=O)OC(C)(C)C)c1nnc(C)n1-2 [JQ1]
Procedure: as §1

Belinostat = compound: O=C(/C=C/c1cccc(S(=O)(=O)Nc2ccccc2)c1)NO [Belinostat]; conditions: top dose 20 µM; top dose inferred
Procedure: as §1

CGP-60474 = compound: OCCCNc1cc(-c2ccnc(Nc3cccc(Cl)c3)n2)ccn1 [CGP-60474]; conditions: top dose 0.256 µM; top dose inferred
Procedure: as §1

JNJ-26854165 = compound: c1ccc2c(CCNc3ccc(Nc4ccncc4)cc3)c[nH]c2c1 [JNJ-26854165]; conditions: top dose 10 µM
Procedure: as §1

[1] = top dose 1 µM, screen: GDSC drug entry 1218, top dose inferred
[2] = top dose 2.56 µM, screen: GDSC drug entry 163

Row | Cell Line | AUC (AMG-706) | IC50 (AMG-706) | AUC (Cyclopamine) | IC50 (Cyclopamine) | AUC (JNK Inhibitor VIII) | IC50 (JNK Inhibitor VIII) | AUC (NSC-207895) | IC50 (NSC-207895) | AUC (FTI-277) | IC50 (FTI-277) | AUC (YM155) | IC50 (YM155) | AUC (OSI-906) | IC50 (OSI-906) | AUC (SB-715992) | IC50 (SB-715992) | AUC (JQ1; [1]) | IC50 (JQ1; [1]) | AUC (JQ1; [2]) | IC50 (JQ1; [2]) | AUC (Belinostat) | IC50 (Belinostat) | AUC (CGP-60474) | IC50 (CGP-60474) | AUC (JNJ-26854165) | IC50 (JNJ-26854165)
1 | TC-71 (Ewing sarcoma, adherent) | 0.991 | > 2 µM | 0.992 | > 16 µM | 0.992 | > 10 µM | 0.988 | > 20 µM | 0.989 | > 1.02 µM | 0.016 | < 0.02 µM | 0.992 | > 2.56 µM | 0.687 | 0.0241 µM | 0.99 | > 1 µM | 0.99 | > 2.56 µM | 0.251 | 0.282 µM | 0.909 | 0.252 µM | 0.891 | 8.23 µM
2 | A388 (skin, adherent) | 0.951 | > 2 µM | 0.925 | > 16 µM | 0.926 | > 10 µM | 0.794 | 10.8 µM | 0.97 | > 1.02 µM | 0.038 | < 0.02 µM | 0.978 | > 2.56 µM | 0.765 | 0.0538 µM | 0.964 | > 1 µM | 0.488 | 0.147 µM | 0.648 | 3.43 µM | 0.659 | – | 0.878 | > 10 µM
3 | ES3 (Ewing sarcoma, adherent) | 0.936 | > 2 µM | 0.979 | > 16 µM | 0.911 | > 10 µM | 0.985 | > 20 µM | 0.979 | > 1.02 µM | 0.029 | < 0.02 µM | 0.743 | 0.83 µM | 0.608 | 0.0162 µM | 0.983 | > 1 µM | 0.767 | 0.999 µM | 0.348 | 0.462 µM | 0.914 | > 0.256 µM | – | –
4 | NCI-H23 (lung adenocarcinoma, adherent) | 0.918 | > 2 µM | 0.988 | > 16 µM | 0.959 | > 10 µM | 0.949 | > 20 µM | 0.985 | > 1.02 µM | 0.027 | < 0.02 µM | 0.988 | > 2.56 µM | 0.98 | > 0.128 µM | 0.974 | > 1 µM | 0.953 | > 2.56 µM | 0.464 | 0.999 µM | 0.823 | 0.149 µM | 0.844 | 7.06 µM
5 | EM-2 (chronic myeloid leukaemia, suspension) | 0.982 | > 2 µM | 0.969 | > 16 µM | 0.977 | > 10 µM | 0.925 | > 20 µM | 0.978 | > 1.02 µM | 0.032 | < 0.02 µM | 0.982 | > 2.56 µM | 0.922 | > 0.128 µM | 0.757 | 0.387 µM | 0.749 | 0.93 µM | 0.544 | 1.67 µM | 0.83 | 0.19 µM | 0.896 | > 10 µM
6 | TE-5 (oesophagus, adherent) | 0.979 | > 2 µM | 0.984 | > 16 µM | 0.98 | > 10 µM | 0.984 | > 20 µM | 0.97 | > 1.02 µM | 0.801 | 2.96 µM | 0.952 | > 2.56 µM | 0.924 | > 0.128 µM | 0.981 | > 1 µM | 0.682 | 0.56 µM | 0.979 | > 20 µM | 0.736 | 0.0851 µM | 0.918 | > 10 µM
7 | LC-2-ad (lung adenocarcinoma, adherent) | 0.924 | > 2 µM | 0.981 | > 16 µM | 0.966 | > 10 µM | 0.941 | > 20 µM | 0.953 | > 1.02 µM | 0.035 | < 0.02 µM | 0.732 | 0.75 µM | 0.654 | 0.0217 µM | 0.983 | > 1 µM | 0.595 | 0.294 µM | 0.199 | 0.156 µM | 0.525 | 0.0187 µM | 0.918 | > 10 µM
8 | Mo-T (hairy cell leukaemia, suspension) | 0.987 | > 2 µM | 0.987 | > 16 µM | 0.987 | > 10 µM | 0.644 | 3.16 µM | 0.983 | > 1.02 µM | 0.035 | < 0.02 µM | 0.985 | > 2.56 µM | 0.766 | 0.0481 µM | 0.986 | > 1 µM | 0.974 | > 2.56 µM | 0.336 | 0.433 µM | 0.96 | > 0.256 µM | 0.913 | > 10 µM
9 | NKM-1 (acute myeloid leukaemia, suspension) | 0.958 | > 2 µM | 0.984 | > 16 µM | 0.983 | > 10 µM | 0.8 | 10 µM | 0.983 | > 1.02 µM | 0.027 | < 0.02 µM | 0.916 | > 2.56 µM | 0.553 | 0.0112 µM | 0.835 | 0.685 µM | 0.629 | 0.368 µM | 0.246 | 0.226 µM | 0.749 | 0.0849 µM | 0.617 | 1.33 µM
